Test results as given in patent EP4613780A1 (Adlai Nortye Biopharma Co., Ltd., dated 2025).

T1: human CTLA4 protein (Acro, CT4-H52H9) (human, UniProt P16410 36-161)
T1 construct: coated on the ELISA plate; also called human CTLA4 antigen
T1 sequence (looked up): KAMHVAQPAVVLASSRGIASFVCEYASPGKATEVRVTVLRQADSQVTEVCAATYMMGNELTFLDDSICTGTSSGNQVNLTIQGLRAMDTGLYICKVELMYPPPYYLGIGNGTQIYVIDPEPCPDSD


Assays:
[1] = target: T2, human CD28 protein (Acro, CD8-H525a) (human, UniProt P10747 19-152); experiment: ELISA, coated human CD28
T2 construct: coated on the ELISA plate; also called human CD28 antigen
T2 sequence (P10747 19-152 limits assumed): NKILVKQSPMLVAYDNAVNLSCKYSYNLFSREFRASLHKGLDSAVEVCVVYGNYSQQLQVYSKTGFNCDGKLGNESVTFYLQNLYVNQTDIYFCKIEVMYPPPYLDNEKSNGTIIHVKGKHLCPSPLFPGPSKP

[2] = target: T1, human CTLA4 protein (Acro, CT4-H52H9); experiment: ELISA, coated human CTLA4

| EC50 [1] [nM] | EC50 [2] [nM] | Binder |
| --- | --- | --- |
| 5.98 | 0.794 | functional antibody Abs-367 (Fc fusion, unmutated CD86 IgV - IgG4 Fc) APLKIQAYFNETADLPCQFANSQNQSLSELVVFWQDQENLVLNEVYLGKEKFDSVHSKYMGRTSFDSDSWTLRLHNLQIKDKGLYQCIIHHKKPTGMIRIHQMNSELSVL[left out - human IgG4 Fc] |
| 0.0297 | 0.312 | functional antibody Abs-355 (Fc fusion, CD86 IgV Q25V/H90I - IgG4 Fc) APLKIQAYFNETADLPCQFANSQNVSLSELVVFWQDQENLVLNEVYLGKEKFDSVHSKYMGRTSFDSDSWTLRLHNLQIKDKGLYQCIIIHKKPTGMIRIHQMNSELSVL[left out - human IgG4 Fc] |
| 0.0242 | 0.313 | functional antibody Abs-343 (Fc fusion, CD86 IgV A13I/Q25I/F33L/H90I - IgG4 Fc) APLKIQAYFNETIDLPCQFANSQNISLSELVVLWQDQENLVLNEVYLGKEKFDSVHSKYMGRTSFDSDSWTLRLHNLQIKDKGLYQCIIIHKKPTGMIRIHQMNSELSVL[left out - human IgG4 Fc] |
| 0.0315 | 0.521 | functional antibody Abs-334 (Fc fusion, CD86 IgV Q25I/F33L/H90I - IgG4 Fc) APLKIQAYFNETADLPCQFANSQNISLSELVVLWQDQENLVLNEVYLGKEKFDSVHSKYMGRTSFDSDSWTLRLHNLQIKDKGLYQCIIIHKKPTGMIRIHQMNSELSVL[left out - human IgG4 Fc] |
| 0.0432 | 0.497 | functional antibody Abs-341 (Fc fusion, CD86 IgV Q25V/F33V/H90V - IgG4 Fc) APLKIQAYFNETADLPCQFANSQNVSLSELVVVWQDQENLVLNEVYLGKEKFDSVHSKYMGRTSFDSDSWTLRLHNLQIKDKGLYQCIIVHKKPTGMIRIHQMNSELSVL[left out - human IgG4 Fc] |
| 0.0318 | 0.437 | functional antibody Abs-348 (Fc fusion, CD86 IgV Q25V/F33L/I89L/H90I - IgG4 Fc) APLKIQAYFNETADLPCQFANSQNVSLSELVVLWQDQENLVLNEVYLGKEKFDSVHSKYMGRTSFDSDSWTLRLHNLQIKDKGLYQCILIHKKPTGMIRIHQMNSELSVL[left out - human IgG4 Fc] |
| 0.0418 | 0.493 | functional antibody Abs-346 (Fc fusion, CD86 IgV Q25I/F33L/I89L/H90I - IgG4 Fc) APLKIQAYFNETADLPCQFANSQNISLSELVVLWQDQENLVLNEVYLGKEKFDSVHSKYMGRTSFDSDSWTLRLHNLQIKDKGLYQCILIHKKPTGMIRIHQMNSELSVL[left out - human IgG4 Fc] |
| 0.039 | 0.437 | functional antibody Abs-350 (Fc fusion, CD86 IgV Q25F/F33L/H90I - IgG4 Fc) APLKIQAYFNETADLPCQFANSQNFSLSELVVLWQDQENLVLNEVYLGKEKFDSVHSKYMGRTSFDSDSWTLRLHNLQIKDKGLYQCIIIHKKPTGMIRIHQMNSELSVL[left out - human IgG4 Fc] |
| 0.0407 | 0.41 | functional antibody Abs-347 (Fc fusion, CD86 IgV Q25I/F33L/M60R/H90I - IgG4 Fc) APLKIQAYFNETADLPCQFANSQNISLSELVVLWQDQENLVLNEVYLGKEKFDSVHSKYRGRTSFDSDSWTLRLHNLQIKDKGLYQCIIIHKKPTGMIRIHQMNSELSVL[left out - human IgG4 Fc] |
| 4.4 | 1.89 | functional antibody Abs-340 (Fc fusion, CD86 IgV Q25I/F33V/H90V - IgG4 Fc) APLKIQAYFNETADLPCQFANSQNISLSELVVVWQDQENLVLNEVYLGKEKFDSVHSKYMGRTSFDSDSWTLRLHNLQIKDKGLYQCIIVHKKPTGMIRIHQMNSELSVL[left out - human IgG4 Fc] |
| 0.0493 | 0.328 | functional antibody Abs-349 (Fc fusion, CD86 IgV Q25V/F33L/M60R/H90I - IgG4 Fc) APLKIQAYFNETADLPCQFANSQNVSLSELVVLWQDQENLVLNEVYLGKEKFDSVHSKYRGRTSFDSDSWTLRLHNLQIKDKGLYQCIIIHKKPTGMIRIHQMNSELSVL[left out - human IgG4 Fc] |
| 0.0493 | 0.514 | functional antibody Abs-342 (Fc fusion, CD86 IgV A13L/Q25I/F33L/H90I - IgG4 Fc) APLKIQAYFNETLDLPCQFANSQNISLSELVVLWQDQENLVLNEVYLGKEKFDSVHSKYMGRTSFDSDSWTLRLHNLQIKDKGLYQCIIIHKKPTGMIRIHQMNSELSVL[left out - human IgG4 Fc] |
| 0.0897 | 0.706 | functional antibody Abs-335 (Fc fusion, CD86 IgV Q25V/F33L/H90I - IgG4 Fc) APLKIQAYFNETADLPCQFANSQNVSLSELVVLWQDQENLVLNEVYLGKEKFDSVHSKYMGRTSFDSDSWTLRLHNLQIKDKGLYQCIIIHKKPTGMIRIHQMNSELSVL[left out - human IgG4 Fc] |
| 0.0302 | 0.43 | functional antibody Abs-338 (Fc fusion, CD86 IgV Q25I/F33L/H90V - IgG4 Fc) APLKIQAYFNETADLPCQFANSQNISLSELVVLWQDQENLVLNEVYLGKEKFDSVHSKYMGRTSFDSDSWTLRLHNLQIKDKGLYQCIIVHKKPTGMIRIHQMNSELSVL[left out - human IgG4 Fc] |
| 0.0249 | 0.347 | functional antibody Abs-345 (Fc fusion, CD86 IgV A13I/Q25V/F33L/H90I - IgG4 Fc) APLKIQAYFNETIDLPCQFANSQNVSLSELVVLWQDQENLVLNEVYLGKEKFDSVHSKYMGRTSFDSDSWTLRLHNLQIKDKGLYQCIIIHKKPTGMIRIHQMNSELSVL[left out - human IgG4 Fc] |
| 0.0327 | 0.602 | functional antibody Abs-336 (Fc fusion, CD86 IgV Q25I/F33V/H90I - IgG4 Fc) APLKIQAYFNETADLPCQFANSQNISLSELVVVWQDQENLVLNEVYLGKEKFDSVHSKYMGRTSFDSDSWTLRLHNLQIKDKGLYQCIIIHKKPTGMIRIHQMNSELSVL[left out - human IgG4 Fc] |
| 0.0331 | 0.42 | functional antibody Abs-354 (Fc fusion, CD86 IgV Q25V/H90V - IgG4 Fc) APLKIQAYFNETADLPCQFANSQNVSLSELVVFWQDQENLVLNEVYLGKEKFDSVHSKYMGRTSFDSDSWTLRLHNLQIKDKGLYQCIIVHKKPTGMIRIHQMNSELSVL[left out - human IgG4 Fc] |
| 0.0531 | 0.592 | functional antibody Abs-337 (Fc fusion, CD86 IgV Q25V/F33V/H90I - IgG4 Fc) APLKIQAYFNETADLPCQFANSQNVSLSELVVVWQDQENLVLNEVYLGKEKFDSVHSKYMGRTSFDSDSWTLRLHNLQIKDKGLYQCIIIHKKPTGMIRIHQMNSELSVL[left out - human IgG4 Fc] |
| 0.0647 | 0.598 | functional antibody Abs-356 (Fc fusion, CD86 IgV Q25F/H90I - IgG4 Fc) APLKIQAYFNETADLPCQFANSQNFSLSELVVFWQDQENLVLNEVYLGKEKFDSVHSKYMGRTSFDSDSWTLRLHNLQIKDKGLYQCIIIHKKPTGMIRIHQMNSELSVL[left out - human IgG4 Fc] |
| 2.26 | 1.07 | functional antibody Abs-339 (Fc fusion, CD86 IgV Q25V/F33L/H90V - IgG4 Fc) APLKIQAYFNETADLPCQFANSQNVSLSELVVLWQDQENLVLNEVYLGKEKFDSVHSKYMGRTSFDSDSWTLRLHNLQIKDKGLYQCIIVHKKPTGMIRIHQMNSELSVL[left out - human IgG4 Fc] |
| 2.97 | 1.1 | functional antibody Abs-351 (Fc fusion, CD86 IgV Q25I/F33L/H90F - IgG4 Fc) APLKIQAYFNETADLPCQFANSQNISLSELVVLWQDQENLVLNEVYLGKEKFDSVHSKYMGRTSFDSDSWTLRLHNLQIKDKGLYQCIIFHKKPTGMIRIHQMNSELSVL[left out - human IgG4 Fc] |
| 10.5 | 5.97 | functional antibody Abs-352 (Fc fusion, CD86 IgV Q25I/F33A/H90I - IgG4 Fc) APLKIQAYFNETADLPCQFANSQNISLSELVVAWQDQENLVLNEVYLGKEKFDSVHSKYMGRTSFDSDSWTLRLHNLQIKDKGLYQCIIIHKKPTGMIRIHQMNSELSVL[left out - human IgG4 Fc] |
| 0.0487 | 0.297 | functional antibody Abs-353 (Fc fusion, CD86 IgV Q25I/H90I - IgG4 Fc) APLKIQAYFNETADLPCQFANSQNISLSELVVFWQDQENLVLNEVYLGKEKFDSVHSKYMGRTSFDSDSWTLRLHNLQIKDKGLYQCIIIHKKPTGMIRIHQMNSELSVL[left out - human IgG4 Fc] |
| 2.4 | 0.917 | functional antibody Abs-344 (Fc fusion, CD86 IgV A13L/Q25V/F33L/H90I - IgG4 Fc) APLKIQAYFNETLDLPCQFANSQNVSLSELVVLWQDQENLVLNEVYLGKEKFDSVHSKYMGRTSFDSDSWTLRLHNLQIKDKGLYQCIIIHKKPTGMIRIHQMNSELSVL[left out - human IgG4 Fc] |
| 0.289 | 0.0793 | functional antibody Abs-300 (Fc fusion, CD86 ECD Q25I/F33L/H90I - IgG4 Fc) APLKIQAYFNETADLPCQFANSQNISLSELVVLWQDQENLVLNEVYLGKEKFDSVHSKYMGRTSFDSDSWTLRLHNLQIKDKGLYQCIIIHKKPTGMIRIHQMNSELSVLANFSQPEIVPISNITENVYINLTCSSIHGYPEPKKMSVLLRTKNSTIEYDGVMQKSQDNVTELYDVSISLSVSFPDVTSNMTIFCILETDKTRLLSSPFSIELEDPQPPPDHIP[left out - human IgG4 Fc] |
| 10 | 0.254 | functional antibody Abs-333 (Fc fusion, unmutated CD86 ECD - IgG4 Fc) APLKIQAYFNETADLPCQFANSQNQSLSELVVFWQDQENLVLNEVYLGKEKFDSVHSKYMGRTSFDSDSWTLRLHNLQIKDKGLYQCIIHHKKPTGMIRIHQMNSELSVLANFSQPEIVPISNITENVYINLTCSSIHGYPEPKKMSVLLRTKNSTIEYDGVMQKSQDNVTELYDVSISLSVSFPDVTSNMTIFCILETDKTRLLSSPFSIELEDPQPPPDHIP[left out - human IgG4 Fc] |
| 0.489 | 0.127 | functional antibody Abs-301 (Fc fusion, CD86 ECD Q25V/F33L/H90I - IgG4 Fc) APLKIQAYFNETADLPCQFANSQNVSLSELVVLWQDQENLVLNEVYLGKEKFDSVHSKYMGRTSFDSDSWTLRLHNLQIKDKGLYQCIIIHKKPTGMIRIHQMNSELSVLANFSQPEIVPISNITENVYINLTCSSIHGYPEPKKMSVLLRTKNSTIEYDGVMQKSQDNVTELYDVSISLSVSFPDVTSNMTIFCILETDKTRLLSSPFSIELEDPQPPPDHIP[left out - human IgG4 Fc] |
